Results are given in words; binding and its absence hold for the method and conditions named. For some of these results: In cells and extracts the contact can be indirect. Some entries that bind do so weakly or less than the wild type. Sequences can lack the tags named with a protein.
T1: N1, N-terminal fragment of Ams2 (amino acid residues 1-143), two-hybrid fusion (fission yeast (Schizosaccharomyces pombe)) (UniProt Q9URT4)
T1 sequence: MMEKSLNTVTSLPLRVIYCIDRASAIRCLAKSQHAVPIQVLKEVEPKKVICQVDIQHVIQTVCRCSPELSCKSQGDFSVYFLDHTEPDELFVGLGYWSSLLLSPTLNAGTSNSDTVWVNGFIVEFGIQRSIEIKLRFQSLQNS

T2: BD-Teb1N, N-terminal fragment of Teb1 (amino acid residues 1-237) fused with a DNA-binding domain (fission yeast (Schizosaccharomyces pombe)) (UniProt Q10274)
T2 sequence: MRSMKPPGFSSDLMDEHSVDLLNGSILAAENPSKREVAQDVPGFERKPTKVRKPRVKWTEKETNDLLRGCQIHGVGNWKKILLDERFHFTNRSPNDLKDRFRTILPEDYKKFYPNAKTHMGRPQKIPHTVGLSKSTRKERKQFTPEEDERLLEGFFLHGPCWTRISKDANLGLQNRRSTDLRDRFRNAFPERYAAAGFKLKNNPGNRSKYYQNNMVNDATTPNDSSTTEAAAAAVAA

T3: Ams2 in fission yeast lysate (GFP-tagged Ams2 from the chromosomal locus; HA-tagged wild-type Ams2 overproduced from pRep41) (fission yeast (Schizosaccharomyces pombe)) (UniProt Q9URT4)
T3 sequence: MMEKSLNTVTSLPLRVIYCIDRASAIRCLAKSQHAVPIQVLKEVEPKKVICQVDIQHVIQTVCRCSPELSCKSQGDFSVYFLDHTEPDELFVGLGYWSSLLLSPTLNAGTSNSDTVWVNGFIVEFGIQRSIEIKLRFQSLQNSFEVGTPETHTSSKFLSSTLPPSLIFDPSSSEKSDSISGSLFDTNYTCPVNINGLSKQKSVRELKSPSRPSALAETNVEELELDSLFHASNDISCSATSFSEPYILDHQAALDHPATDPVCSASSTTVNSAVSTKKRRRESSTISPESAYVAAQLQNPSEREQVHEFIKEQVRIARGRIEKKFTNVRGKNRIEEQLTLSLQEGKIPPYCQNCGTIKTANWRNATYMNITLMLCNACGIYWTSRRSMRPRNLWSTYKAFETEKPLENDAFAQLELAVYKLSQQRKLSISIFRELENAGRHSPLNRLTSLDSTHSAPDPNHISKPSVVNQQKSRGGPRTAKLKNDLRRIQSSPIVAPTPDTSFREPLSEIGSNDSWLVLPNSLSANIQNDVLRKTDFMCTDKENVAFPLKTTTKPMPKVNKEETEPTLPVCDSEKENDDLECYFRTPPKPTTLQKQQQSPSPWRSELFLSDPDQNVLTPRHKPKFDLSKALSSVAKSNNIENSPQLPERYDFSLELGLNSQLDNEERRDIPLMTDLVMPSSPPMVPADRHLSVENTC


Experiments:
[1] = target: T1, N1, N-terminal fragment of Ams2 (amino acid residues 1-143), two-hybrid fusion (fission yeast (Schizosaccharomyces pombe)); test: two-hybrid; budding yeast strain L40 (LexAop-HIS3); pBTM (BD) bait and pGAD (AD) prey; growth on medium lacking tryptophan, leucine and histidine with 25 mM 3-AT at 30 °C
[2] = target: T2, BD-Teb1N, N-terminal fragment of Teb1 (amino acid residues 1-237) fused with a DNA-binding domain (fission yeast (Schizosaccharomyces pombe)); test: as above
[3] = target: T3, Ams2 in fission yeast lysate (GFP-tagged Ams2 from the chromosomal locus; HA-tagged wild-type Ams2 overproduced from pRep41) (fission yeast (Schizosaccharomyces pombe)); test: co-IP; S. pombe lysates (cells arrested in S phase with 12 mM HU) in IP buffer (50 mM HEPES pH 7.5, 250 mM NaCl, 0.1% NP40); anti-GFP antibody and Dynabeads anti-Mouse IgG at 4 °C; western blotting with anti-HA

Binder | binding [1] | binding [2] | binding [3]
AD-full-length Ams2 (protein, UniProt Q9URT4 1-697) MMEKSLNTVTSLPLRVIYCIDRASAIRCLAKSQHAVPIQVLKEVEPKKVICQVDIQHVIQTVCRCSPELSCKSQGDFSVYFLDHTEPDELFVGLGYWSSLLLSPTLNAGTSNSDTVWVNGFIVEFGIQRSIEIKLRFQSLQNSFEVGTPETHTSSKFLSSTLPPSLIFDPSSSEKSDSISGSLFDTNYTCPVNINGLSKQKSVRELKSPSRPSALAETNVEELELDSLFHASNDISCSATSFSEPYILDHQAALDHPATDPVCSASSTTVNSAVSTKKRRRESSTISPESAYVAAQLQNPSEREQVHEFIKEQVRIARGRIEKKFTNVRGKNRIEEQLTLSLQEGKIPPYCQNCGTIKTANWRNATYMNITLMLCNACGIYWTSRRSMRPRNLWSTYKAFETEKPLENDAFAQLELAVYKLSQQRKLSISIFRELENAGRHSPLNRLTSLDSTHSAPDPNHISKPSVVNQQKSRGGPRTAKLKNDLRRIQSSPIVAPTPDTSFREPLSEIGSNDSWLVLPNSLSANIQNDVLRKTDFMCTDKENVAFPLKTTTKPMPKVNKEETEPTLPVCDSEKENDDLECYFRTPPKPTTLQKQQQSPSPWRSELFLSDPDQNVLTPRHKPKFDLSKALSSVAKSNNIENSPQLPERYDFSLELGLNSQLDNEERRDIPLMTDLVMPSSPPMVPADRHLSVENTC | binds | binds | 
AD-C1, C-terminal fragment C1 of Ams2 (amino acid residues 143-697) (domain or fragment, UniProt Q9URT4 143-697) SFEVGTPETHTSSKFLSSTLPPSLIFDPSSSEKSDSISGSLFDTNYTCPVNINGLSKQKSVRELKSPSRPSALAETNVEELELDSLFHASNDISCSATSFSEPYILDHQAALDHPATDPVCSASSTTVNSAVSTKKRRRESSTISPESAYVAAQLQNPSEREQVHEFIKEQVRIARGRIEKKFTNVRGKNRIEEQLTLSLQEGKIPPYCQNCGTIKTANWRNATYMNITLMLCNACGIYWTSRRSMRPRNLWSTYKAFETEKPLENDAFAQLELAVYKLSQQRKLSISIFRELENAGRHSPLNRLTSLDSTHSAPDPNHISKPSVVNQQKSRGGPRTAKLKNDLRRIQSSPIVAPTPDTSFREPLSEIGSNDSWLVLPNSLSANIQNDVLRKTDFMCTDKENVAFPLKTTTKPMPKVNKEETEPTLPVCDSEKENDDLECYFRTPPKPTTLQKQQQSPSPWRSELFLSDPDQNVLTPRHKPKFDLSKALSSVAKSNNIENSPQLPERYDFSLELGLNSQLDNEERRDIPLMTDLVMPSSPPMVPADRHLSVENTC | no binding | binds | 
AD-zinc finger-mutated Ams2 (MZF) (protein, UniProt Q9URT4 1-697) MMEKSLNTVTSLPLRVIYCIDRASAIRCLAKSQHAVPIQVLKEVEPKKVICQVDIQHVIQTVCRCSPELSCKSQGDFSVYFLDHTEPDELFVGLGYWSSLLLSPTLNAGTSNSDTVWVNGFIVEFGIQRSIEIKLRFQSLQNSFEVGTPETHTSSKFLSSTLPPSLIFDPSSSEKSDSISGSLFDTNYTCPVNINGLSKQKSVRELKSPSRPSALAETNVEELELDSLFHASNDISCSATSFSEPYILDHQAALDHPATDPVCSASSTTVNSAVSTKKRRRESSTISPESAYVAAQLQNPSEREQVHEFIKEQVRIARGRIEKKFTNVRGKNRIEEQLTLSLQEGKIPPYCQNCGTIKTANWRNATYMNITLMLANAAGIYWTSRRSMRPRNLWSTYKAFETEKPLENDAFAQLELAVYKLSQQRKLSISIFRELENAGRHSPLNRLTSLDSTHSAPDPNHISKPSVVNQQKSRGGPRTAKLKNDLRRIQSSPIVAPTPDTSFREPLSEIGSNDSWLVLPNSLSANIQNDVLRKTDFMCTDKENVAFPLKTTTKPMPKVNKEETEPTLPVCDSEKENDDLECYFRTPPKPTTLQKQQQSPSPWRSELFLSDPDQNVLTPRHKPKFDLSKALSSVAKSNNIENSPQLPERYDFSLELGLNSQLDNEERRDIPLMTDLVMPSSPPMVPADRHLSVENTC | binds |  | 
N1, N-terminal fragment of Ams2 (amino acid residues 1-143), two-hybrid fusion (domain or fragment, UniProt Q9URT4 1-143) MMEKSLNTVTSLPLRVIYCIDRASAIRCLAKSQHAVPIQVLKEVEPKKVICQVDIQHVIQTVCRCSPELSCKSQGDFSVYFLDHTEPDELFVGLGYWSSLLLSPTLNAGTSNSDTVWVNGFIVEFGIQRSIEIKLRFQSLQNS | binds |  | 
Ams2 in fission yeast lysate (GFP-tagged Ams2 from the chromosomal locus; HA-tagged wild-type Ams2 overproduced from pRep41) (protein, UniProt Q9URT4 1-697) MMEKSLNTVTSLPLRVIYCIDRASAIRCLAKSQHAVPIQVLKEVEPKKVICQVDIQHVIQTVCRCSPELSCKSQGDFSVYFLDHTEPDELFVGLGYWSSLLLSPTLNAGTSNSDTVWVNGFIVEFGIQRSIEIKLRFQSLQNSFEVGTPETHTSSKFLSSTLPPSLIFDPSSSEKSDSISGSLFDTNYTCPVNINGLSKQKSVRELKSPSRPSALAETNVEELELDSLFHASNDISCSATSFSEPYILDHQAALDHPATDPVCSASSTTVNSAVSTKKRRRESSTISPESAYVAAQLQNPSEREQVHEFIKEQVRIARGRIEKKFTNVRGKNRIEEQLTLSLQEGKIPPYCQNCGTIKTANWRNATYMNITLMLCNACGIYWTSRRSMRPRNLWSTYKAFETEKPLENDAFAQLELAVYKLSQQRKLSISIFRELENAGRHSPLNRLTSLDSTHSAPDPNHISKPSVVNQQKSRGGPRTAKLKNDLRRIQSSPIVAPTPDTSFREPLSEIGSNDSWLVLPNSLSANIQNDVLRKTDFMCTDKENVAFPLKTTTKPMPKVNKEETEPTLPVCDSEKENDDLECYFRTPPKPTTLQKQQQSPSPWRSELFLSDPDQNVLTPRHKPKFDLSKALSSVAKSNNIENSPQLPERYDFSLELGLNSQLDNEERRDIPLMTDLVMPSSPPMVPADRHLSVENTC |  |  | binds
HA-tagged zinc finger-mutated Ams2 protein (MZF), overproduced (protein, UniProt Q9URT4 1-697) MMEKSLNTVTSLPLRVIYCIDRASAIRCLAKSQHAVPIQVLKEVEPKKVICQVDIQHVIQTVCRCSPELSCKSQGDFSVYFLDHTEPDELFVGLGYWSSLLLSPTLNAGTSNSDTVWVNGFIVEFGIQRSIEIKLRFQSLQNSFEVGTPETHTSSKFLSSTLPPSLIFDPSSSEKSDSISGSLFDTNYTCPVNINGLSKQKSVRELKSPSRPSALAETNVEELELDSLFHASNDISCSATSFSEPYILDHQAALDHPATDPVCSASSTTVNSAVSTKKRRRESSTISPESAYVAAQLQNPSEREQVHEFIKEQVRIARGRIEKKFTNVRGKNRIEEQLTLSLQEGKIPPYCQNCGTIKTANWRNATYMNITLMLANAAGIYWTSRRSMRPRNLWSTYKAFETEKPLENDAFAQLELAVYKLSQQRKLSISIFRELENAGRHSPLNRLTSLDSTHSAPDPNHISKPSVVNQQKSRGGPRTAKLKNDLRRIQSSPIVAPTPDTSFREPLSEIGSNDSWLVLPNSLSANIQNDVLRKTDFMCTDKENVAFPLKTTTKPMPKVNKEETEPTLPVCDSEKENDDLECYFRTPPKPTTLQKQQQSPSPWRSELFLSDPDQNVLTPRHKPKFDLSKALSSVAKSNNIENSPQLPERYDFSLELGLNSQLDNEERRDIPLMTDLVMPSSPPMVPADRHLSVENTC |  |  | binds
AD-C2, C-terminal fragment C2 of Ams2 (amino acid residues 347-697) (domain or fragment, UniProt Q9URT4 347-697) IPPYCQNCGTIKTANWRNATYMNITLMLCNACGIYWTSRRSMRPRNLWSTYKAFETEKPLENDAFAQLELAVYKLSQQRKLSISIFRELENAGRHSPLNRLTSLDSTHSAPDPNHISKPSVVNQQKSRGGPRTAKLKNDLRRIQSSPIVAPTPDTSFREPLSEIGSNDSWLVLPNSLSANIQNDVLRKTDFMCTDKENVAFPLKTTTKPMPKVNKEETEPTLPVCDSEKENDDLECYFRTPPKPTTLQKQQQSPSPWRSELFLSDPDQNVLTPRHKPKFDLSKALSSVAKSNNIENSPQLPERYDFSLELGLNSQLDNEERRDIPLMTDLVMPSSPPMVPADRHLSVENTC |  | no binding | 
HA-tagged N1 region-deleted Ams2 protein (C1), overproduced (domain or fragment, UniProt Q9URT4 143-697) SFEVGTPETHTSSKFLSSTLPPSLIFDPSSSEKSDSISGSLFDTNYTCPVNINGLSKQKSVRELKSPSRPSALAETNVEELELDSLFHASNDISCSATSFSEPYILDHQAALDHPATDPVCSASSTTVNSAVSTKKRRRESSTISPESAYVAAQLQNPSEREQVHEFIKEQVRIARGRIEKKFTNVRGKNRIEEQLTLSLQEGKIPPYCQNCGTIKTANWRNATYMNITLMLCNACGIYWTSRRSMRPRNLWSTYKAFETEKPLENDAFAQLELAVYKLSQQRKLSISIFRELENAGRHSPLNRLTSLDSTHSAPDPNHISKPSVVNQQKSRGGPRTAKLKNDLRRIQSSPIVAPTPDTSFREPLSEIGSNDSWLVLPNSLSANIQNDVLRKTDFMCTDKENVAFPLKTTTKPMPKVNKEETEPTLPVCDSEKENDDLECYFRTPPKPTTLQKQQQSPSPWRSELFLSDPDQNVLTPRHKPKFDLSKALSSVAKSNNIENSPQLPERYDFSLELGLNSQLDNEERRDIPLMTDLVMPSSPPMVPADRHLSVENTC |  |  | no binding

Source: PMC5128866
